From the supplement of paper PMC10126150
Sequences with one replicate were seen in a single cluster, so their values are uncertain.

Test system: ATP
Assay: switch fluorescence ratio, 500 uM ATP over buffer (Cy3 cluster intensity, sum of 5 cycles each) (fold (ratio)); higher = stronger signal-on switching upon ATP binding; sequences stand for … in TCGTCGGCAGCGTCAGATGTGTATAAGAGACAGTTTTTTTTTTTTTTTTTTTTTTTTT…TC
Conditions: aptamer strand: ATP DNA aptamer (quencher-CACCTGGGGGAGTATTGCGGAGGAAGG + anchor), 100 nM annealed; ATP concentration: 500 uM; one replicate
Procedure, shortened: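 Between each of five buffer/ATP cycles, the flow-cell was stripped with NaOH and re-annealed. Each cycle imaged Cy3-labelled switching-strand clusters, annealed to 100 nM quencher-labelled ATP aptamer on a modified Illumina MiSeq flow-cell, first in selection buffer and then after 15 min with 500 uM ATP at 22 °C. The fluorescence ratio is summed target-cycle over summed buffer-cycle Cy3 intensity per cluster, averaged per switch-domain sequence, with clusters outside 100-1000 RFU excluded.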
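Also: ATP exposure 15 min at 22 °C before imaging.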

Sequence	switch fluorescence ratio
TTAGGCTCGA	0.97
GGCGTGGGCG	0.898
ATGTCTGTGC	0.972
TGAGGGTTAT	0.974
CCATATAAGT	1.02
GGGCAGAGTC	0.998
AAATTAGCAC	1.02
AAGTGAGGTC	0.981
AAAGATAGCA	0.992
AGGCATGTAC	1.67
TTATTATGCA	1.02
CACCTTACAG	1.32
CTAAAACACA	1.11
TAGAGTGGCT	0.98
CGTGGAGATG	1.07
TTGCCAATTG	0.975
GATCGACGGG	1.02
TTCAATGCTG	1.18
ATGTACTGG	1.12
AAGATAATG	0.957
AAATTACAAG	1.01
CAAATTTAAC	0.981
CTGAGAGTTG	0.988

Sequence	switch fluorescence ratio
GATAAGATAT	1.11
TTGTATGCAG	1.01
CAATCTTCA	1.12
TGACTGAATG	0.989
TCGCATGAAC	2.8
CTTGCGGAAC	1.33
GTGACCTGT	0.96
TCTGCAGAT	1.05
CCCCTGAGAC	1.56
CAACGAAGCG	1.09
CATACAGAAA	0.982
TCTAGATCGG	1.02
CAAAGCAGGT	1.08
GTTTGTCCTC	0.987
CCAGATGGGA	0.964
GTTGAATGT	0.988
CTTAGAGGCG	1.07
ACCGGCCAAG	1.05
ATAGTAGAAC	1.02
CAGCACCCAC	1.58
TGTCTTCTTG	1.01
CCACTTGCTG	1.01
AATTGTTCTC	0.993

Sequence	switch fluorescence ratio
AAAGATTAAC	0.995
GGTAATGGCC	1.01
AAAGGACTCC	1.06
GAGTCATTGG	1.03
CGTCATGACC	1.05
TCATTTCGAC	1.86
CCTTCATTTT	1
GGTAGTCACC	0.979
CAATGTATTA	0.998
ATGACAGATA	0.982
CAGAAGGGCT	1.06
TGGGTAAAAC	1.02
TTCTCAAGTC	0.985
ATGTATAGAA	0.955
ACCTTTCTCC	3.82
TCTGTTGTAA	1.01
GTCACCGCCG	1.12
ACGGCCAGCA	1.09
AGTCGTTTGA	1.06
AGTCACGTGC	1.11
GCATCATCCT	1.03
CCGATCAGAT	1.39
AGGTAAGGCC	1.02

Sequence	switch fluorescence ratio
CCAGTTGTCG	1.03
AGGTAACTCA	1.03
ATACTTTGGG	0.973
GCTCGCCACA	0.997
CCAAGTAGG	1.02
CGTTTAATGC	1.19
GCAGGTGGAT	1.12
ATCCGACCAA	4.3
ATAATCTGTA	0.974
TGTTTTATAG	0.962
ATGACCAGTT	0.976
TTATGAGCCC	0.974
GTTGGCGCGA	1.01
GGCTCATCTG	0.971
AGAATTAGGG	0.976
AGGGTGAGTT	1.02
TCGCCATTGA	0.969
AGAATAATGA	1.02
CGGCCGGTCT	0.966
GGGTGCCACA	0.978
ATGTTTAGA	0.964
TGCTCCCCGG	1.12
GACAATAAAG	1

Sequence	switch fluorescence ratio
AAAAGATAAT	0.991
CTTTAAAATG	1.03
ACGGAGACAC	1.07
TAGAGAAAGC	1.02
ACGAGCCCAG	4.66
GCTTGGGCTG	0.999
GCTTCCGGCG	1.95
TTACAAGTT	0.993
TAAATGCTCA	1
AATTTAATCA	0.987
GACGAGCGTG	0.987
CTCGGGATTC	1.37
GTTGTTCATC	0.909
AGTGGAACCA	0.997
ATAATCGCCA	1.06
TTCACGGAAT	1.15
CGGGGCTT	1.01
AGACGGGCGA	0.988
GTATGCTGCT	0.997
CGTCTTCTAG	0.935
GGAATTTGTA	1.04
GGGGCCAGGT	1.16
AAGGGCGCGC	1.13

Sequence	switch fluorescence ratio
CGTACGACCA	1.08
TTAATTTTCA	1.02
GTAGTGTCGG	1.02
CAATTCCCAG	1.03
CAGGACGAAT	1.03
GCGAATACGA	3.04
GTAGGTAGCA	1.02
GTTGTTGTT	0.983
TAGTGCGTGG	1.02
AAACGTCCCA	1.01
AACGCGAGCA	0.977
ATGCCGATG	1.01
TATTATCACG	0.992
TGTTCCCGGG	1.01
TTTTTTTCG	0.976
GACAACGACG	1.07
AGCACTATGG	1.08
ACCGCGTCTT	1.02
CAAGGACTAG	1.02
GCTGGGAGCA	0.978
TGCCTACCTT	1.06
ATGGGCCGGC	1.09
ACCCGCTTGT	1.18

Sequence	switch fluorescence ratio
CACAACGGCC	1.02
TGGGGATCAT	1
TACGTTAGGA	0.996
TAGAGTAGAA	0.967
GCAGTTTGGG	1
CACTTGAGTT	0.971
GCGTTAACTT	1
GCCCGCGAAT	1.82
CGTGCTTCCT	1.11
GTTGGTCTGT	0.961
CAGGATCTTT	1
ACTTGCTTTT	1.03
ATGATGTAA	0.971
AAAATATGTC	0.993
TTAGTGTTA	1
AGGCTAAGGT	1.03
TAACGTGACG	1.04
ATCTGTGTTA	0.986
TTTAGCGTAC	1.78
